# In all, about 310,000 compounds went through this assay and about 2,200 (0.71%) showed an effect of 50% or more. The effect is printed as a negative number. Some of the results follow.
# Molecular target: human ether-à-go-go-related gene (hERG) potassium channel (human, UniProt Q12809)
# Experiment: primary screen, population patch clamp on CHO cells stably expressing hERG
# human ether-à-go-go-related gene (hERG) potassium channel, sequence (Q12809 whole entry, looked up): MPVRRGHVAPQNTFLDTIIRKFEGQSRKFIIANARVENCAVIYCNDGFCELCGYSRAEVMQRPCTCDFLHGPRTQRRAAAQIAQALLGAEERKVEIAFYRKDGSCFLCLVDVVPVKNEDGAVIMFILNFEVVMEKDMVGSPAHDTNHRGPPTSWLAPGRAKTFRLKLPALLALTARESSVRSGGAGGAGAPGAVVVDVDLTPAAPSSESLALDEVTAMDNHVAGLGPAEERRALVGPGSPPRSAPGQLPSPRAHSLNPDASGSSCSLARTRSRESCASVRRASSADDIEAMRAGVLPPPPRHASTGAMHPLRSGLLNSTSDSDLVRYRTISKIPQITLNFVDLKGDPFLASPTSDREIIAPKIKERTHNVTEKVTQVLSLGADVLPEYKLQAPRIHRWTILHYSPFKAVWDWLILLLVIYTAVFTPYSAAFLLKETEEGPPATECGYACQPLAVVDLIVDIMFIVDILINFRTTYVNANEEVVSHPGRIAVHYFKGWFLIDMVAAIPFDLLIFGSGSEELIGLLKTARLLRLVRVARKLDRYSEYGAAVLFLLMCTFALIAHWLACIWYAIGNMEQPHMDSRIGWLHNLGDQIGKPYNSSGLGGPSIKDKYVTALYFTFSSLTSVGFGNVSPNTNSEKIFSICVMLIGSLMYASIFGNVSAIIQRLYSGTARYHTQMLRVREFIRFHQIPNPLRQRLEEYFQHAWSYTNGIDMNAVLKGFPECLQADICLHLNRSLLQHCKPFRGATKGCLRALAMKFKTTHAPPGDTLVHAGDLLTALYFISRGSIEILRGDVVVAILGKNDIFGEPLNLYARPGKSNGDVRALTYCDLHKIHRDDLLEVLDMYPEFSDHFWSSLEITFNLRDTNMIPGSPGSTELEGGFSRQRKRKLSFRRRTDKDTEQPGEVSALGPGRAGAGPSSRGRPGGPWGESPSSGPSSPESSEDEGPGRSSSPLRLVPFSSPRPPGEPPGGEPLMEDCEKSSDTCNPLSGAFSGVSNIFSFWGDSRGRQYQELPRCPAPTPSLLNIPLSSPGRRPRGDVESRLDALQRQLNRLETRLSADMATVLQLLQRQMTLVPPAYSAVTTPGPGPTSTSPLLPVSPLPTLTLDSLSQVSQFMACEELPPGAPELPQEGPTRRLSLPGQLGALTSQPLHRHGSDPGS
row,SMILES,"hERG current change (%, negative = inhibition) at 1uM [%]"
1,COc1cccc(-c2onc3ccc(C(C)=O)cc23)c1,10.8
2,CCOc1ccc(S(=O)(=O)N2CCC(C(=O)OC(C)C(=O)N3CCOCC3)CC2)cc1 (centres unmarked),-6.88
3,Cc1ccc(NC(=O)CS(=O)CC(=O)N(c2ccc(C)cc2)C(C)C(=O)NC2CCCCC2)cc1 (centres unmarked),7.66
4,O=C(c1cc2ccccc2oc1=O)N(Cc1ccccc1)C1CCS(=O)(=O)C1 (centres unmarked),-0.474
5,CCC(=O)Nc1ccc(Cl)c(NC(=O)C(C)C)c1,6.47
6,CCOC(=O)C1=C(C)N=C2SCCC(=O)N2C1c1sccc1C (centres unmarked),5.04
7,Cc1ccc(C2CC(c3ccc(C)cc3)n3nc(N)nc3N2)cc1 (centres unmarked),3.75
8,COc1ccc(NC(=O)Nc2nnc(N3CCC(C)CC3)s2)cc1OC,8.3
9,C=CCn1c(SCc2c(C)noc2C)nc2sc(C)c(C)c2c1=O,1.2
10,COc1cc2nc(CN(C)Cc3nc4ccccc4c(=O)[nH]3)[nH]c(=O)c2cc1OC,-1.41
11,Cc1ccc(-c2nn(CC(=O)Nc3cccnc3)c(=O)c3ccccc23)cc1,13.5
12,CCn1c(CCNC(=O)c2ccc(Cl)c(Cl)c2)nnc1SCCOc1ccc(OC)cc1,5.32
13,CC(=O)c1ccc(N2CCN(C(=O)c3ccc(Cl)c(NC4=NC5CS(=O)(=O)CC5S4)c3)CC2)cc1 (centres unmarked),7.9
14,O=C(C1=C(O)C(=O)N(Cc2ccco2)C1c1cccc([N+](=O)[O-])c1)c1ccco1 (centres unmarked),15.3
15,O=C1C=C(c2cccc3c2sc2ccccc23)C[C@@H](c2ccc(Cl)cc2)C1,7.43
16,COCCN1Cc2cccc(C(=O)Nc3c(C)cccc3C)c2C1=O,8.78
17,COc1cc(C2NC(=O)NC(O)(C(F)(F)F)C2C(=O)c2cccs2)ccc1O (centres unmarked),1.23
18,CCn1nc(C)c(Br)c1-c1nc(CS(=O)(=O)c2ccc(F)cc2)no1,10.5
19,Cc1sc(NC(=O)c2cccs2)nc1-c1ccccc1,5.02
20,O=C(COC(=O)CNC(=O)c1ccccc1Cl)Nc1ccccc1Cl,11.7
21,COc1cc2nc(CN3CCN(S(=O)(=O)c4ccc(Cl)cc4)CC3)[nH]c(=O)c2cc1OC,-4.64
22,COc1ccc(OC)c(-n2c(SCC(=O)Nc3cc(C)on3)nnc2-c2c[nH]c3ccccc23)c1,0.87
23,O=C(CSc1nc(-c2ccccc2)cc(=O)[nH]1)NCc1ccc2c(c1)OCO2,6.45

# Source: paper PMC4336329 (PLoS ONE, 2015)
